The text below walks through data of PubChem BioAssay AID1645887 (National Center for Advancing Translational Sciences (NCATS), 2021).

“And” between values parts separate entries of the source, which are not always exact repeats. Equal entries are not always repeated. In all, about 16,000 compounds went through this assay and about 40 (0.2%) were called active. About 1% were inconclusive and are not listed. Calls come from the whole dose curve; as a rule, active = well fitted activation curve with a large enough effect; inconclusive = small, poorly fitted or top-dose-only effect, or another doubt; inactive = no such curve, though single readings can be large or run the other way. Some of the results follow.
% is set by controls: 0 for no effect and ±100 for the full control effect.

Chain of UniProt Q8WZA2 (Q8WZA2 whole entry, looked up): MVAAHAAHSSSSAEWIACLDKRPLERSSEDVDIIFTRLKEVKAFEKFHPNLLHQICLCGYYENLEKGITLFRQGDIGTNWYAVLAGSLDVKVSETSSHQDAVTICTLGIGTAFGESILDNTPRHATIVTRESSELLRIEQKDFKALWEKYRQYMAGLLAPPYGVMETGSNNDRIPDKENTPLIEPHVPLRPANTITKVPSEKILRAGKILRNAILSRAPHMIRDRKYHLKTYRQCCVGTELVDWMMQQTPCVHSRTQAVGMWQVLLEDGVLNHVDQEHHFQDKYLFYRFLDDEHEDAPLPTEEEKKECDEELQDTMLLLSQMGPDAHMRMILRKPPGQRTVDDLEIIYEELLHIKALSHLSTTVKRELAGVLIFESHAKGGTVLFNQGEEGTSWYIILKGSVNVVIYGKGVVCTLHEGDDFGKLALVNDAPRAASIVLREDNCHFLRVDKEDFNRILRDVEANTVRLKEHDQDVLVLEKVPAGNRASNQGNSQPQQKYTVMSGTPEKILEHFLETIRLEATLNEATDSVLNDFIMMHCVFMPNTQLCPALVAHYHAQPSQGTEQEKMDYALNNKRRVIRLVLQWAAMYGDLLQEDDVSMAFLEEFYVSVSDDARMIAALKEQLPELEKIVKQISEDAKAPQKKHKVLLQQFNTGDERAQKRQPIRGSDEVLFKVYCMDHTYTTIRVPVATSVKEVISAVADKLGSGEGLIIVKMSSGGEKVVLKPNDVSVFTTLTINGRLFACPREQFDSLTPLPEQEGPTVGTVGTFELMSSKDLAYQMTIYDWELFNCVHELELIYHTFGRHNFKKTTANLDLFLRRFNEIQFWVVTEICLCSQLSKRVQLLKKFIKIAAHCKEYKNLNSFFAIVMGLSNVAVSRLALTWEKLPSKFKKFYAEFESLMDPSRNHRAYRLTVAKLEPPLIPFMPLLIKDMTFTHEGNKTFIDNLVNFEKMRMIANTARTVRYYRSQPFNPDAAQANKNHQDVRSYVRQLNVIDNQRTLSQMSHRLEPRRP

In this assay the target is Rap guanine nucleotide exchange factor 4 (Homo sapiens) (UniProt Q8WZA2). Put plainly: Validation qHTS for agonist of cAMP-regulated guanine nucleotide exchange factor 4 (EPAC2).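 Note: exchange makes BODIPY-GDP fluorescence drop when released from Rap1B; series mostly up to about 150 µM.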 Conditions: EPAC2 Rap1B BODIPY-GDP exchange, fluorescence; activation: stronger effect = higher value. The procedure, abridged:
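Fluorescent exchange assay: 100 nM EPAC2 with 250 nM RAP1B-BODIPY-GDP and 50 uM GDP; compound added, 5 min at room temperature, then read (ex 480/em 540 nm) every 5 min for 30 min. Normalized to 6.5 mM cAMP agonist control.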
(qHTS replaces the single test concentration by a dilution series.)
Take `NCC(CC(=O)O)c1ccc(Cl)s1` (stereo not given): the activation was inactive: 0.78%. Consider `O=c1ccc2cc(O[C@H]3OC(CO)C(O)C(O)C3O)c(O)cc2o1` (stereo not given in full), for which the activation is inactive: -3.84% and inactive: -2.45%. On to `O=C(/C=C/c1ccc(Cl)cc1)N[C@@]12CCC(=O)[C@@H]3Oc4c(O)ccc5c4[C@@]31CCN(CC1CC1)C2C5`, for which the activation is inactive: 8.59%.

As to `O=C1/C(=C\c2ccccc2)C[C@@]2(O)[C@H]3Cc4ccc(O)c5c4[C@@]2(CCN3CC2CC2)[C@H]1O5`, the activation was inactive: 5.66%. Turning to `c1cc2cc(c1)C[n+]1ccc(c3ccccc31)NCc1ccc(cc1)CNc1cc[n+](c3ccccc13)C2`, the activation is inactive: -15.2%. With `C/C=C(\CC)C(=O)NC(N)=O`, the activation was inactive: -6.29%. In the case of `Oc1ccc2c3c1O[C@H]1c4c(c5ccccc5n4Cc4ccccc4)C[C@]4(O)[C@H](C2)N(CC2CC2)CC[C@@]314`, the activation is inactive: -11.5%.

With H-YGGFLRKYPK-OH, the activation is inactive: 7.38%. `Oc1ccc2c3c1O[C@H]1c4c(c5ccccc5n4Cc4ccccc4)C[C@@]4(O)C(C2)N(CC2CC2)CC[C@]314`: the activation was inactive: -8.5%. As to `COC1=CC(=O)OC(/C=C/c2ccccc2)C1` (stereo not given), the activation was inactive: -10.5%. With `COCC(C)N(C(=O)CCl)c1c(C)csc1C` (stereo not given), the activation was inactive: -5.5%.

For `CC(C)=CCN1CC[C@@]2(C)c3cc(O)ccc3C[C@@H]1[C@@H]2C`, the activation was inactive: -8.78%.

On to `Cc1nnc2n1-c1ccc(Cl)cc1C(c1ccccc1Cl)=NC2`, for which the activation was inactive: 15.3%.

`CC(N)Cc1c[nH]c2ccc(O)cc12` (stereo not given): the activation was inactive: 5.71% and inactive: -3.5%. As for `CC(=O)O[C@H]1C[C@H](O[C@H]2[C@@H](O)C[C@H](O[C@H]3[C@@H](O)C[C@H](O[C@H]4CC[C@@]5(C)[C@H](CC[C@@H]6[C@@H]5C[C@@H](O)[C@]5(C)[C@@H](C7=CC(=O)OC7)CC[C@]65O)C4)O[C@@H]3C)O[C@@H]2C)O[C@H](C)[C@H]1O[C@@H]1O[C@H](CO)[C@@H](O)[C@H](O)[C@H]1O`, the activation is inactive: -23.6%.

In the case of `O=C1CN=C(c2ccccc2)c2cc(Cl)ccc2N1CC1CC1`, the activation was inactive: -22.9%. Take `N[C@H](CCCCCP(=O)(O)O)C(=O)O`: the activation is inactive: -7.03% and inactive: 2.47%. Take `NC(Cc1cc(O)c(O)cc1O)C(=O)O` (stereo not given): the activation is inactive: -54.9%.

On to `C[C@H]1CCC[C@H](O)CCCCCc2cc(O)cc(O)c2C(=O)O1`, for which the activation is inactive: -1.04%. Turning to `O=C(CN1CCCCC1)c1ccccc1`, the activation was inactive: -16.1%. For the molecule `C/C=C1/C[C@@H](C)[C@](O)(CO)C(=O)OCC2=CCN3CC[C@@H](OC1=O)C23` (stereo not given in full), the activation was inactive: 2.37%. The figure for `N[C@@H](CCCCP(=O)(O)O)C(=O)O` is inactive: 5.15%. The same measure for `O=C1C=C2C(=CCOC2O)O1` (stereo not given): inactive: -3.22%; for `COc1ccc2c3c1O[C@H]1[C@H](O)CC[C@H]4[C@@H](C2)N(C)CC[C@@]341`: inactive: 4.18%. With `O=c1oc2ccccc2c(O)c1C(c1ccccc1O)c1c(O)c2ccccc2oc1=O`, the activation was inactive: -35.2%.

Consider `C[C@@H](Cc1ccccc1)NCCC(c1ccccc1)c1ccccc1`, for which the activation is inactive: -12.8%. As to `OCC(O)Cc1ccc2c(c1)OCO2` (stereo not given), the activation is inactive: -14.9%. The same measure for `CC1=C2[C@H]3OC(=O)[C@@H](C)[C@@H]3CC[C@@]2(C)C=CC1=O`: inactive: -7.81%. On to `COP(=S)(OC)SCN1C(=O)c2ccccc2C1=O`, for which the activation is inactive: -9.49%. Turning to `O=[N+]([O-])c1c2ccccc2cc2ccccc12`, the activation was inactive: -9.34%. On to `CCCN(CCC)C1CCc2ccc(O)cc2C1` (stereo not given), for which the activation is inactive: -3.55% and inactive: -18.5%. Take `CCC(C)C(=O)OC1C(O)C2C(CN3CC(C)CCC3[C@]2(C)O)C2C[C@]34O[C@@]5(O)C(OC(=O)C(C)(O)CC)CCC3(C)C5C(OC(C)=O)C(OC(C)=O)C4[C@@]21O` (stereo not given in full): the activation is inactive: -1.91%.

For `CCCC(=O)OC(C(Cl)(Cl)Cl)P(=O)(OC)OC` (stereo not given), the activation is inactive: -13.9%. For the molecule `CCC(N)C(O)c1ccc(O)c(O)c1` (stereo not given), the activation was inactive: -7.38%. With `CC(C)CCON=O`, the activation was inactive: 3.62%. In the case of `CC[C@H](C)[C@H]1O[C@]2(C=C[C@@H]1C)C[C@@H]1C[C@@H](C/C=C(\C)[C@@H](O[C@H]3C[C@H](OC)[C@@H](O[C@H]4C[C@H](OC)[C@@H](O)[C@H](C)O4)[C@H](C)O3)[C@@H](C)/C=C/C=C3\CO[C@@H]4[C@H](O)C(C)=C[C@@H](C(=O)O1)[C@]34O)O2`, the activation is inactive: -30.9%. As to `CC1=C(O)C(=O)C=C2C1=CC=C1[C@]2(C)CC[C@@]2(C)C3C[C@](C)(C(=O)O)CC[C@@]3(C)CC[C@@]12C` (stereo not given in full), the activation was inactive: -13.4%.

For `CC(C)n1cnc2c(C(=O)N[C@H]3CN4CCC3CC4)cc(Cl)cc21`, the activation was inactive: -3.07%.

`C[C@@H](Cc1ccccc1)N(C)C`: the activation was inactive: -13.5%.

`CC(=O)N1CC2CC(C1)c1cccc(=O)n1C2` (stereo not given): the activation is inactive: -2.05%. `CC(C)(O)[C@@H]1[C@H]2OC(=O)[C@@H]1[C@]1(O)C[C@H]3O[C@]34C(=O)O[C@H]2[C@@]14C` (tested in a mixture with another compound): the activation was inactive: -11.3%.

`NC(N)=NCCCCCCCCCCN=C(N)N`: the activation was inactive: -12% and inactive: 0.499%. The figure for `CC1(C)C(C=C(Cl)Cl)C1C(=O)OC(C#N)c1cccc(Oc2ccccc2)c1` (stereo not given) is inactive: 4.44% and inactive: -0.317%; for `O=C(O)[C@@H]1Cc2[nH]cnc2C(c2cccnc2)N1` (stereo not given in full) it is inactive: -7.21%.

With `Oc1cc(Cl)ccc1Oc1ccc(Cl)cc1Cl`, the activation was inactive: 15% and inactive: -39.4%. For the molecule `CC[C@@H](O)C(C[C@@H](C)N(C)C)(c1ccccc1)c1ccccc1`, the activation is inactive: -4.06%. The figure for `NCC(O)c1cccc(O)c1` (stereo not given) is inactive: -5.63%. With `c1csc(C2(N3CCCCC3)CCCCC2)c1`, the activation was inactive: -11.7%. In the case of `CCC(=O)O[C@H]1[C@@H](N2CCCCC2)C[C@H]2[C@@H]3CC[C@H]4C[C@H](OC(C)=O)[C@@H](N5CCCCC5)C[C@]4(C)[C@H]3CC[C@@]21C`, the activation was inactive: -11.9%.

In the case of `CCOC(=O)[C@]12Cc3cc(OC)ccc3[C@H]1N(Cc1ccccc1)C(=O)c1cc(F)c(F)cc12`, the activation was inactive: -20.3%.
